Data taken from patent US12460006B2, “Antibodies against integrin alpha 11 beta 1” (Momenta Pharmaceuticals, Inc., priority 2019, dated 2025).
Residue numbers refer to the chain shown, from its start. “Also recorded” adds a separate entry of the source. Values belong to the molecule of their own block, whether it stands above or below them.

How the values were obtained:
I domain of α11β1 = target: T1, I domain of α11β1 (Homo sapiens, UniProt Q9UKX5); assay: ELISA binding to in-house generated I domain of α11β1; details: for I Domain binding: Yes/No
T1 construct: An in-house generated I domain of α11β1 was used; made in house
T1 sequence (Q9UKX5 164-345 limits assumed): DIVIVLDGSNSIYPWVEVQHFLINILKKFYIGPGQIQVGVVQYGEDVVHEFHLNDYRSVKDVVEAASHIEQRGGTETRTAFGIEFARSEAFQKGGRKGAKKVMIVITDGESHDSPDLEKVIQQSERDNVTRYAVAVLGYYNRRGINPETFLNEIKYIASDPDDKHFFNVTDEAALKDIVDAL
Description: 0.25 μg/mL of target antigen (recombinant human or mouse α11β1) was plated in a 96-well plate over night at 4° C. Plates were washed (PBS with 0.1% Tween-20), blocked (PBS with 2% BSA and 0.05% Tween-20) for 1 hour at room temperature and incubated with a range of antibody concentrations for 1 hour at room temperature. Subsequently, plates were washed and incubated with biotinylated anti-rabbit/mouse/human IgG in a 1:1000 dilution buffer and incubated for 1 hour at room temperature. After washing the plates, Streptavidin HRP was added at 1:200 in dilution buffer and incubated for 1 hour at room temperature. Ultra TMB ELISA substrate solution was added and the plates incubated for 5 minutes on a plate shaker. The reaction was stopped by adding stop solution to each well and plates were read at 450 nm.
22 Data was also collected to determine whether antibodies of interest bind to the I domain of α11β1. An in-house generated I domain of α11β1 was used. […] Mouse antibodies 10-F23, 10-L15, 7-O8, 6-A12, 9-G05 and 9-E16 and rabbit antibodies 7-H12 and 2-D3 were also tested for binding against the in-house generated α11031 domain. FIGS. 3A and 3B show graphs illustrating binding data from exemplary mAbs.

[1] = system: human pulmonary fibroblasts (HPFs); assay: FACS antibody binding to human pulmonary fibroblasts; details: binding Yes/No
Description: Human Pulmonary Fibroblasts (ScienCell) were cultured in complete Fibroblast Growth Medium (ScienCell) until 80% confluent in T-150 flasks. Cells were washed and harvested using Accutase. Cells were seeded into T-150 flasks at 7,500 cells/cm^2 in complete FGF and cultured for 72 hours. Cells were then washed and starved in serum reduced medium for 24 hours. After starvation, cells were treated with TGFβ-1 (R&D Systems) for 72 hours. Cells were harvested using Accutase and seeded in 96-well conical bottom plates. Cells were blocked with Heat Inactived Fetal Bovine Serum (Gibco) for 30 minutes at 4° C. Cells were then incubated with anti-α11 antibodies at the doses described in each figure for 30 minutes at 4° C. A human anti-α11 antibody (Creative BioLabs) was included as a positive control as well as the appropriate IgG isotype negative controls. Cells were washed twice and incubated with PE conjugated secondary antibodies specific to the IgG class of the anti-α11 antibodies being tested for 30 minutes at 4° C. Cells were washed twice and fixed in 1% PFA for 30 minutes. Cells were acquired on a FACS Verse […]. Data were analyzed by gating on single cells and determining the geometric Mean Fluorescence Intensity (gMFI) in the PE channel for each sample.
Binding to a physiologically relevant primary human cell type was also tested. Human pulmonary fibroblasts (HPF) and TGFβ treatment were used to induce a fibroblast-to-myofibroblast transition (FMT), giving rise to myofibroblasts (MF). […] Additionally, HPFs express α11 and α2β1, other collagen binding receptors, which means that HPFs can be to test cross-reactivity of antibodies of interest.

[2] = system: CHO-K1 cells expressing human α11; assay: Cell adhesion inhibition (xCelligence), type I collagen; type: cell-based; details: for Inhibition of CHO-K1 adhesion to collagen: Yes/No
Description: 0.6×10^6 cells/mL were incubated with each antibody at a range of concentrations for 20 minutes at 37° C. E-Plate VIEW 96 PET plate coated with 100 ng/mL type I collagen or PBS overnight at room temperature was blocked in 3% BSA for 1 house at room temperature. After washing the plate with PBS, cell and antibody mixture was added to the wells and the plate was places into an xCelligence machine. Cell adhesion was recorded over 6 hours. The time point of maximum cell adhesion was used for comparison relative to control.
A CHO-K1 hu α11 cell line was used to assess the ability of mAbs to block α11β1-mediated binding to type I collagen. […] In the “Untreated” condition, cells were plated on type I collagen but no antibody was added and in the “Uncoated” condition, cells were seeded onto BSA-coated wells containing no type I collagen. Statistics were performed using one-way ANOVA followed by Dunnett's multiple comparisons test. […] Therefore, it is possible that these mAbs bind on an α11β1 domain that keeps the integrin in a low or intermediate affinity state. […] Nine human mAbs were also tested for their ability to inhibit the binding of human CHO-α11 cells to type I collagen.

- I-domain binder (I domain of α11β1): not found to bind the I-domain
- I Domain binding (I domain of α11β1): No
- HPF FACS [1]: No
B1: 8-G15: mouse anti-α11β1 mAb; VH SEQ ID NO: 107, VL SEQ ID NO: 108 (antibody, V domains shown)
VH: EVQLQQSGPELVKPGASVRISCKASGYTFTDYYIHWVKQKPGQGLECIGEIYPGTDNTYYSKKFRGKATLTADKSSDTAYMQLSSLTSEDSAVYFCARGDYYRGYFDVWGAGTTVTVSS
VL: DVVMTQTSLTLSVTIGQPASISCKSSQSLLHSNGKTYLNWLLQRPGQSPKFLIYLVSKLESGVPDRFSGSGSGTDFTLKISRVEAEDLGVYYCLQSTHFPWTFGGGTKLEIK
- inhibition of cell adhesion to type I collagen ([2]; CHO-K1 hu α11 cells): strong blocker of cell adhesion; also recorded: decrease cell adhesion
- Inhibition of CHO-K1 adhesion to collagen [2]: Yes

- I Domain binding (I domain of α11β1): Yes
- HPF FACS [1]: No
B2: 7-O8: mouse anti-α11β1 mAb; VH SEQ ID NO: 143, VL SEQ ID NO: 144 (antibody, V domains shown)
VH: EVQLQQSGPELVKPGASVKMSCKASGYTFTDYYIHWVKQKPGQGLEYIGEIYPGSGNTYYNGKFRGKATLTADKSSSTAYMQLSSLTSEDSAVYFCGSGYFDYWGQGTTLTVSS
VL: B1 VL with S8P, H31Y, R44S, F51L, I80L, L94V, S96G, W101F, G105S
- Inhibition of CHO-K1 adhesion to collagen [2]: No

- I Domain binding (I domain of α11β1): No
- HPF FACS [1]: No
B3: 2-A3: mouse anti-α11β1 mAb; VH SEQ ID NO: 131, VL SEQ ID NO: 132 (antibody, V domains shown)
VH: EVQLQQSGPELVKPGASVKMSCKASGYTFTDYYMMWVKQSHGKSLEWIGDINPYNGGSSYNPKFKGRATLTVDKSSSTAYMQLNSLTSEDSAVYYCARGTYWGQGTLVTVSA
VL: B1 VL with S8P, H31D, N33A, F51R, I53M, E60D, S68T, L94W, S96G, W101Y
- Inhibition of CHO-K1 adhesion to collagen [2]: No

- I Domain binding (I domain of α11β1): No
- HPF FACS [1]: No
B4: 10-K10: mouse anti-α11β1 mAb; VH SEQ ID NO: 139, VL SEQ ID NO: 140 (antibody, V domains shown)
VH: B3 VH with F29I, V37L, N55T, S58T, P62Q, R67K, T100A, L107T, V108L, A112S
VL: B1 VL with S8P, H31D, N33D, F51R, E60D, S68T, L94W, S96G, W101Y
- Inhibition of CHO-K1 adhesion to collagen [2]: No

- I Domain binding (I domain of α11β1): No
- HPF FACS [1]: No
B5: 6-A15: mouse anti-α11β1 mAb; VH SEQ ID NO: 137, VL SEQ ID NO: 138 (antibody, V domains shown)
VH: EVQLQQSGPELVKPGASVKMSCKASGYTITDYYMMWLKQSHGKSLEWIGDINPYTGGTSYNQKFKGKATLTVDKSSSTAYLQLHSLTSEDSAVYYCARGAYWGQGTTLTVSS
VL: B1 VL with S8P, H31D, N33D, F51R, E60D, S68T, L94W, S96G, W101Y
- Inhibition of CHO-K1 adhesion to collagen [2]: No

- I Domain binding (I domain of α11β1): No
- HPF FACS [1]: No
B6: 6-P20: mouse anti-α11β1 mAb; VH SEQ ID NO: 141, VL SEQ ID NO: 142 (antibody, V domains shown)
VH: EVQLQQSGPELVKPGASVKISCKASGYTFTDYYMNWVKQSHGRSLELIGDINPNNGGSNFNQKFRGKATLTVDKSSSTAYMELRSLTSEDSAIYYCARMGYWGQGTLVTVSA
VL: DVVMTQTPLTLSVTIGQPASISCKSSQSLLHSDGKTYLNWMFQRPGQSPKRLIYLVSKLDSGVPYRFTGGGSGTDFTLQISRVETEDLGVYYCWQGTHFPRTFGGGTKLEIK
- Inhibition of CHO-K1 adhesion to collagen [2]: No

- I Domain binding (I domain of α11β1): No
- HPF FACS [1]: No
B7: 6-O17: mouse anti-α11β1 mAb; VH SEQ ID NO: 133, VL SEQ ID NO: 134 (antibody, V domains shown)
VH: QVQLQQPGAELVKPGASVKLSCKASGYTFTSYWMHWIKQRPGQGLEWIGEINPSNGGSNYNEKFKSKATLTVDKSSSTAYMQLSSLTSEDSAVYHCKSRGYWGQGTTLTVSS
VL: DVVMTQTPLTLSVTIGQPASISCKSSQSLLDSYGKTYLNWLLQRPGQSPKRLIYLVSKLDSGVPDRFTGSGSGTDFTLKISRVEAEDLGIYYCWQGTHFPHTFGSGTKLEIK
- Inhibition of CHO-K1 adhesion to collagen [2]: No
